Assay results reported in EP1790726A2 (Wyeth, dated 2007).

Biological target: T1, purified recombinant human mature GDF-8 (dimer) (human, UniProt O14793 267-375, biotinylated with EZ-link Sulfo-NHS-Biotin in the ActRIIB plate assays; 125I-labelled (chloramine T) in the L6 cell assays; sites not stated)
T1 construct: runs as a dimer on SDS-PAGE; also called myostatin; biotinylated GDF-8
T1 sequence: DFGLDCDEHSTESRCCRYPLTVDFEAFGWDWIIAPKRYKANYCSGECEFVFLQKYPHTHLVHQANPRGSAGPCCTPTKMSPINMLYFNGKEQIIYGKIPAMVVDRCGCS
Test: ActRIIB binding assay (competition ELISA) with biotinylated GDF-8

B1: Human GDF-8 propeptide-IgG1 wt Fc fusion protein (Fc fusion)
chain: not shown
notes: Made in COS-1 M6 cells, purified on Protein A; also called human GDF-8 propeptide-IgG1 Fc fusion protein
binding result: binds
